Read counts are not given, so values of variants with three or more changes are uncertain.
B1: LINE1-full (parent)
chain: UACGUAGGUGGUUUUCCCCUGAUAGUGCUAAGGGGGCCUGGAAGUUUGGACUGGGCAGAGCUCAACACAGCGUGGCAAAGUGGCUGUGGCUAGACUGCCUCUCUGGAUUCCUCGUCACUCAGCAGGGCAUCUCUGAGAGAAAUGCC

Variants of: B1
Assay: self-cleavage, relative activity (ratio to wild type); higher = more cleavage; in vitro, sequencing; the parent is a self-cleaving ribozyme
A6G U9A U102C A138U gave a self-cleavage of 0.9.
Variant A6G G33A G36C has a self-cleavage of 0.91.
Variant U5A U39C U87A C113U has a self-cleavage of 0.06.
Variant A6G U52C A59U U132C A141G has a self-cleavage of 1.84.
In the case of U5C U13C G82A A117G, the self-cleavage is reported as 1.21.
A6G G60C C84U A121U G127A U130C A140G showed a self-cleavage of 0.05.
U5C U62C A69G G75A U108C showed a self-cleavage of 0.18.
For U5A U73A A107G, the self-cleavage was 0.41.
In the case of U5C U23A U100C U112C, the self-cleavage is reported as 1.25.
Variant U5C A57G A59U has a self-cleavage of 0.6.
With A6G U47C A129G the self-cleavage was 0.
U5C A22U A78G A136G showed a self-cleavage of 1.08.
U5C U13C U52C showed a self-cleavage of 0.92.
In the case of A6G G27A U47A C123U, the self-cleavage is reported as 1.53.
U5C U26C G74A C90A gave a self-cleavage of 0.11.
Work on U5A U47C A64U U96A A138G yielded a self-cleavage of 0.08.
For A6G U52A G75A A141G, the self-cleavage was 1.04.
Work on U5A G32A G48A yielded a self-cleavage of 1.53.
In the case of U5C G10A U87C A107G C118A, the self-cleavage is reported as 1.36.
Work on A6G U12A A78G A142G yielded a self-cleavage of 0.32.
In the case of A6G U23C U62A C111G G144A, the self-cleavage is reported as 0.
A6G A77G U87C showed a self-cleavage of 0.3.
U5C G41U A136G gave a self-cleavage of 1.46.
U5A A22G G60A U62C U85G A142G gave a self-cleavage of 0.81.
U5C U26A U85A gave a self-cleavage of 0.25.
A6G U12A A22G A50G showed a self-cleavage of 1.04.
U5C U45A C71U A121G showed a self-cleavage of 1.18.
U5C U12G U73A A142G gave a self-cleavage of 1.31.
For A6G U47C A141G, the self-cleavage was 1.34.
U5A U46C A67G showed a self-cleavage of 0.34.
U5A U14C U108A gave a self-cleavage of 1.53.
A6G U12G U20C A43G A50U U134C A141G showed a self-cleavage of 1.15.
With U5C U81G U132A the self-cleavage was 1.22.
U5A A30G G40C G83A U96A U100C A138U gave a self-cleavage of 0.2.
In the case of U5A U45G U104A C128U U132C A138G, the self-cleavage is reported as 0.
A6G U13C G126U C128U U143A showed a self-cleavage of 0.79.
For U5A U13C A121U U143A, the self-cleavage was 0.99.
U5C U14C U73A gave a self-cleavage of 1.3.
U5C U9G A30G G122A showed a self-cleavage of 0.58.
Work on U5A U20A C61U yielded a self-cleavage of 0.04.
U5A U47C A79G G89C A138G gave a self-cleavage of 0.23.
Work on A6G U9C C19G yielded a self-cleavage of 0.
Variant U5C U47A A67G A129G has a self-cleavage of 0.
With A6G C38A A121G A142G the self-cleavage was 0.54.
Variant A6C U29G A64U A107G has a self-cleavage of 0.81.
With U5C A42G U132C A138U the self-cleavage was 1.15.
A6G A64C U132C showed a self-cleavage of 0.88.
In the case of A6G U14C A77G U96C, the self-cleavage is reported as 0.
Variant A6G A22G A57G U102C U104A has a self-cleavage of 0.
For A6G A50G G97U, the self-cleavage was 0.
In the case of A6G U15C C28G U104C U115C, the self-cleavage is reported as 0.
Work on A6G U13C A57U C66U A79U yielded a self-cleavage of 0.14.
In the case of U5A C51A U62C U100C, the self-cleavage is reported as 0.08.
U5C U45C A117C G125C showed a self-cleavage of 2.
Work on U5C A6G A79G yielded a self-cleavage of 0.
U5A U15A A64U U132C showed a self-cleavage of 0.33.
U5A U13C A124G A141G gave a self-cleavage of 0.41.
U5C A69G U102A gave a self-cleavage of 0.
U5C A24U U81C showed a self-cleavage of 2.09.
In the case of U5C U29C U62A U130A, the self-cleavage is reported as 0.1.
With U5C U47C C113A C131U A140G the self-cleavage was 0.74.
In the case of A6C U81C A138G, the self-cleavage is reported as 0.
In the case of U5A U13A U96C, the self-cleavage is reported as 0.
Variant A6G U14G G86A U112A A141U has a self-cleavage of 0.14.
For U5C U12C A57G A69C G125U, the self-cleavage was 0.46.
Work on U5C G40A A140C yielded a self-cleavage of 1.28.
In the case of A6G U39A G74U, the self-cleavage is reported as 0.73.
U5C A50G U100A U108A U115A gave a self-cleavage of 0.
U5C A57U U85C showed a self-cleavage of 0.48.
A6G U15C A138U gave a self-cleavage of 1.58.
In the case of A6G A78G A121G, the self-cleavage is reported as 1.27.
A6G U13A U112C gave a self-cleavage of 0.82.
Variant U5A A94U U109A has a self-cleavage of 0.3.
Work on A6G A43G C66A A69U yielded a self-cleavage of 0.14.
For U5C U81C C145U, the self-cleavage was 0.92.
For A6G G88A U100C U119C, the self-cleavage was 0.19.
U5A U13A U20C U45G U85C U109A gave a self-cleavage of 0.28.
Variant A6G U14C U62C U87A U102C has a self-cleavage of 0.
A6G A22G U26C gave a self-cleavage of 0.97.
Variant U5C A42U U45A A141G has a self-cleavage of 0.15.
Variant U5C C19U U47C has a self-cleavage of 1.05.
Work on U5C A22G A79G U100C yielded a self-cleavage of 2.76.
U5A G32U U47C G48U A117G A129U showed a self-cleavage of 0.36.
In the case of U5G U23C A136G, the self-cleavage is reported as 1.97.
Work on U5A U9C U15A yielded a self-cleavage of 0.
Work on U5A U14C A67U yielded a self-cleavage of 0.22.
With U5C A6G C18U U62C the self-cleavage was 0.
With A6G A43G A78G G88A U104C the self-cleavage was 0.36.
For U5C U26C C28A A129G A142G, the self-cleavage was 1.39.
For A6G G21A G36A A67C A140G, the self-cleavage was 0.12.
U5A U119A A136U gave a self-cleavage of 0.7.
Work on U5C A65G U81C U96A yielded a self-cleavage of 0.
In the case of U5C G55C G88A A142G, the self-cleavage is reported as 0.09.
A6G U12A U20C G33U A67G U143C gave a self-cleavage of 0.48.
With U5C U46A U132C the self-cleavage was 0.76.
With A6G C51U A65G U85A U96A the self-cleavage was 0.17.
With U5A U12G U13C A24U G55A the self-cleavage was 0.99.
U5G U13C G114U U119C showed a self-cleavage of 0.52.
U5C C56A U130C A140G showed a self-cleavage of 0.16.
Work on U5C G49A U81C yielded a self-cleavage of 0.69.
With A6G U12C A30G G34U U62A A136U the self-cleavage was 0.1.
Variant A6G U13A U96C has a self-cleavage of 0.08.
For U5C G27A U102C, the self-cleavage was 1.27.
For A6G C71A U81A A94G A140G, the self-cleavage was 0.21.
In the case of U5C U26C U29C G97C U132C, the self-cleavage is reported as 0.46.
For U5C U52C A117C, the self-cleavage was 1.77.
Work on U5A U12C A141G yielded a self-cleavage of 1.01.
Variant A6G C113A A138G has a self-cleavage of 0.38.
A6G U39C U102C showed a self-cleavage of 0.
In the case of U5C U96A U132C, the self-cleavage is reported as 0.25.
With U5C U52A U73A A77C A94G the self-cleavage was 0.
In the case of A6G C38U U87A, the self-cleavage is reported as 0.1.
A6G A64G U73C showed a self-cleavage of 0.79.
Work on U5C U112C A117G yielded a self-cleavage of 2.3.
A6G U9A U13C U115C gave a self-cleavage of 1.5.
A6G U13C U73C C131A gave a self-cleavage of 1.75.
Work on U5C A92G U108C C131A A141G yielded a self-cleavage of 0.
In the case of U5C U52A A65G U96C U102C, the self-cleavage is reported as 0.
For A6G U20C G74A A92G A136G, the self-cleavage was 0.17.
U5G G60C G72C A77U U115C gave a self-cleavage of 0.08.
U5C C111U A121G C131A gave a self-cleavage of 1.41.
With A6G U15C A94G the self-cleavage was 0.19.
Work on A6G U47A A78G G125A yielded a self-cleavage of 1.04.
U5A U20C A59G A129G A141G gave a self-cleavage of 0.34.
In the case of U5G U45G U112C A138G, the self-cleavage is reported as 0.27.
With U5C U29C U102G the self-cleavage was 0.77.
U5C C56G A59G U100A A136G gave a self-cleavage of 0.
In the case of A6G G41A U52A U112C U143C, the self-cleavage is reported as 1.66.
Work on A6G U14C A67G yielded a self-cleavage of 0.
For U5G G34U U104C, the self-cleavage was 1.57.
Work on U5C U13C U26A A136G yielded a self-cleavage of 0.18.
With A6G A124G U134C the self-cleavage was 2.17.
Variant A6G U46A A50G U62C U130C A142U has a self-cleavage of 0.42.
U5C U26C U47A showed a self-cleavage of 1.05.
For U5A G33A A77G, the self-cleavage was 1.56.
Work on A6G A42G U46A A78U U96A yielded a self-cleavage of 0.08.
U5C A77G U102C C110A U112A gave a self-cleavage of 2.13.
Work on U5A U47C A59U U109C G126A U134C yielded a self-cleavage of 0.61.
A6G G89A A107G U115C A121G A141G gave a self-cleavage of 0.24.
For A6G U9A U26C U62A, the self-cleavage was 0.33.
In the case of U5C A22G A64G, the self-cleavage is reported as 0.
With U5C U134C G144A the self-cleavage was 1.47.
U5C A6C A124U gave a self-cleavage of 0.8.
For U5G U12C U20C A138G, the self-cleavage was 1.18.
U5A U23C G89A A136G A138C gave a self-cleavage of 0.1.
For A6G U20C U102C U119C G127A A136G A141G, the self-cleavage was 0.84.
A6G G75A A77G gave a self-cleavage of 1.01.
Variant U5C U9A U130C has a self-cleavage of 0.8.
Variant A6G U47A C101U U109A has a self-cleavage of 0.92.
U5C G72A U102G U109A showed a self-cleavage of 1.15.
With A6G U20C A67G the self-cleavage was 0.
A6G A64G G83A A124G G139C showed a self-cleavage of 0.64.
U5C A24G U39C U115A gave a self-cleavage of 0.5.
Variant U5A U14C G40U U45A U96A U109A U143G has a self-cleavage of 0.04.
For U5C U20A U96A U112G A129G, the self-cleavage was 0.
In the case of U5A U13G G88U A117U A142G, the self-cleavage is reported as 0.09.
In the case of U5A U45C A65U U143C C146A, the self-cleavage is reported as 0.27.
Variant U5C A30U U85A U119A A124U A141G has a self-cleavage of 0.16.
U5C C18U A78G gave a self-cleavage of 0.86.
A6C U45C A77G showed a self-cleavage of 1.88.
Work on U5C G97A A142G yielded a self-cleavage of 0.25.
For U5A U46C A67G U87A, the self-cleavage was 0.24.
U5C A94G A138G gave a self-cleavage of 0.88.
For A6G U14C A92G A138G, the self-cleavage was 0.34.
A6G A117U U119A U143G gave a self-cleavage of 1.05.
In the case of A6G U14C G40A U108C, the self-cleavage is reported as 0.57.
In the case of U5C U12C U39A U45G A69G U132A A141G, the self-cleavage is reported as 0.

From the RNAGym collection of RNA variant scans (doi:10.7554/elife.90254)
